In publication PMC10726135:
The other results are listed elsewhere or left out. At the low end of the ranking the order means little. Measured with an extract: partners may take part in the binding.

target: T1, HNF4alpha2 (COS-7 nuclear extract) (UniProt P41235); experiment: protein-binding microarray; conditions: COS-7 nuclear extract on double-stranded Agilent 4x180k PBM; binding buffer, salt, pH and temperature not given; high values mean tight binding; double strand, one strand shown; sequences stand for … in …GCCTAGGGAGATTAGAGTATCGGTCGA
T1 sequence: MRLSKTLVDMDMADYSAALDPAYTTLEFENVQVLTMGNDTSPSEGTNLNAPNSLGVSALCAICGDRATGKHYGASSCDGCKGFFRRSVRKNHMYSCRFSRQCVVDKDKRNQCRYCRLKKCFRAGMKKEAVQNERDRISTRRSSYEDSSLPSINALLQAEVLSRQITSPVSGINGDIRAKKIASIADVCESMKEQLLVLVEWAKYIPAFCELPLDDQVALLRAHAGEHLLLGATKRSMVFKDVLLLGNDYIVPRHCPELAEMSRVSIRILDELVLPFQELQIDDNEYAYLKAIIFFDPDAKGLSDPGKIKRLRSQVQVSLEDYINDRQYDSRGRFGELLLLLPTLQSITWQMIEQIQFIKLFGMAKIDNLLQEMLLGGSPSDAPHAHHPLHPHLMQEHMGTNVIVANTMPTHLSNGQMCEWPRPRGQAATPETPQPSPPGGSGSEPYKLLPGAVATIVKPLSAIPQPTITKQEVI

| Sequence | binding signal (log2 normalized intensity) |
| --- | --- |
| AATGAGATCTCCCCACATTCCAACACAGGG | 0.0808 |
| CTTTAAGGTCACATAGCAGGCATACCAGGC | 0.0309 |
| CTTGTCCAACTCCCCTCCCAAGGCAGCAAT | 4 |
| TAACTCAAACATCTGACAGAGATAAGGAAG | -1.09 |
| ATCAGAGCATGCATACGTGAAAGTAAAGAG | -1.03 |
| AGCTGTGCGGTAGGCATTGAGGCAGCCAGC | -1.15 |
| TTCATCTGGGACGTGGCTCAAGATTACAGG | -0.0321 |
| ATTCACTTTTTGGCCTTTGGCTGTTCGATG | 2.51 |
| GTTTCGCAAGGACGTGACCTTTATGGGAAA | 3.06 |
| GAGTACATGCCTCTCCCAGTGGAATGCAAA | 0.217 |
| ACAAAGATCCCTTATTTGCATGAAGCACAA | -1.2 |
| ATGGTTTACCATATTTACTTATGGTTTGAC | 1.43 |
| TCATGATTAGATTGAAGTTACGTATTTTTG | 1.18 |
| AAGGCAAGGGTCAAGATGTCTCAAGATATC | 0.739 |
| ATAAGAAGGGGTCAGACCAGACAGCACCTC | -1.07 |
| AGAAGCCACTGCGACCTTTGCCCTCCCTAA | 7.38 |
| ATGGTGCCTATTTGTCCCTGACCAAACTCA | -1.1 |
| TTAAAGTGCCATTGAGATGGTAACCACACC | -1.16 |
| TCTGTGTGTATGTGTGTGTACACATTGATA | 2.42 |
| ATGTGGTCAAAACTTTGTTTGAGTTCCAAA | 1.07 |
| CAGCTTCAGGAGCTGCAGGGAAGCCCCTGC | -0.871 |
| ATAGAAAGCCTTTGAACTGTGTTGCAAATT | 0.837 |
| GGTCAAGAGGGACAAAATGCCCAGGATTCC | -1.09 |
| AGCATATTTGGCCACATCCTGTCTCCTTTA | -0.0236 |

| Sequence | binding signal (log2 normalized intensity) |
| --- | --- |
| GCCACTGAACTTTCACTGCCTATCTCCTAT | -0.0469 |
| CCTGACATTCTTGAGCTGCTAAACCAACAC | -1.1 |
| TCCCAGATGCTGACCATATTCCAAATTCCA | 0.217 |
| CCCTGTTTAGAATTCTGCCTCCCCCACCCC | 6.11 |
| CAAACCGAGATCAAGGGACAGAGATAACTG | -1.18 |
| GTGGCCTTTGTCCTAGTGCATGCTGGGAGT | 1.74 |
| GAATCTGGACAGTGTAAGATAAAAATCAGA | -1.14 |
| TTCCCTCCCTCCCAGTACAAAGTTCACTTT | 6.44 |
| TGCCCTTTGCCTGGTGATCTTTGTTAGACC | 2.7 |
| CCAAGCAGTGATATTCTCTCGTCACCTCCA | -1.14 |
| CTCCACTGGGAATGACATTTTGGACTACTT | 1.71 |
| CATTCAGATAAATGGTGTAGAGGCCAGAGG | -0.833 |
| ACAGAGGCAGTGGGACAATGAAGCCTAAAT | -1.06 |
| TCTTTCCACTTGGGCTTCCTCATCTGTTTA | 1.16 |
| GGAATGCAGTGGCGCAATCTCAGCTCAATC | -1.1 |
| CCCTTTTTCTGTAAAGCTTTATTTTGGGGC | 1.49 |
| AAGGAGGCAGTAAGATAAGGAGGTAGAGTC | -1.19 |
| AGATTGCCACCTTGGTGAGAGATTAAACAT | -0.677 |
| GGTACGTTCCAATATTCTGGCTTCTCGTGA | -1.13 |
| GGCTTGTGCTTAGCTATTTCGTTGAATGCT | -0.502 |
| CCCGGCTTTGGGCTTGAGCAGCTGGTGGAG | 0.349 |
| GGGAAAAGATGGTCTCTCACCTGGCTTCCC | -1.05 |
| AGAAAAGAAAGTGAGGAATGCAACCACACC | -0.894 |
| ATTGGTTTCCGCTAAGTCCAAAGGTAAAAA | 3.61 |

| Sequence | binding signal (log2 normalized intensity) |
| --- | --- |
| GACCCTCGGGCCTCCCTAGAGGCCTTCTCT | -1.09 |
| TATGTTGCTGATAAAGTCTATCTTAGCCAT | 0.173 |
| TTCACCGTATTATCTTATCTCCTCTGTAGG | 1.61 |
| CTGCCCAGACCTTATCTTGCATTTCTTCAG | -0.308 |
| TTAAGGACAAAGGCTTTGAGTCAACACACC | -1.15 |
| ACCTCAAATGCAGGTGAGAGGCCTCTAAGC | -1.02 |
| AGCTCCAGGAGACGTAGAGATAAGGTCTTC | -0.875 |
| TTTTCCCTGCTGCTGGCTGGCGGCCTTTGG | 1.26 |
| CTCGAGGTGGACTTTCCCCCCTCACACTTT | 5.25 |
| ATAAATAAGAAGCCTTATCAGTATCAATGA | -0.294 |
| CCATTTCTCAGGTTGTGTTTGCAGTGAGTA | 2.09 |
| GCCGGCCCGGTGCGCTGGCCTTGCTTTTCA | -0.995 |
| AGTTCTGTCCTTTGTCCTGTACCTGGGAAG | 2.12 |
| TTCCAAACATGTTTCGAACGGTTGCAGCAT | -1.05 |
| CCAGCTGCAGAGGAAGGACATGGTAAAGAT | -1.09 |
| AGAACAAACAATGGTTTGGGACAAAGTTTG | 0.489 |
| CCGTCCTCCCCCACGACAGAATTGACTCTT | 3.53 |
| CACTGGGGTTTAAAGTTTATAGGCTAGAAT | 0.463 |
| GAAGGCCAGGCAGCACAATTTGTGTCTCTC | -1.04 |
| CTAAGCAGCTGCAGTTTCTGCTATCTGCCT | -1.15 |
| AAGCTGTGGGATCCAACCAGAGGGAAGAGA | -1.12 |
| CATTCCTTAACATGGTTTGCAAGACCTCTG | 1.13 |
| CAGCTCAGCTAGTGAGATACGGCCTGGACT | 1.28 |
| GTCGCGTATCTGACTTTATCATTGGACTCT | 4.88 |

| Sequence | binding signal (log2 normalized intensity) |
| --- | --- |
| TCTGTTGAGAACTGGAGCAAAGGTCACTCT | 5.13 |
| AGAAAACGTAAGCCCTCTATCAAAGGAGAA | -0.944 |
| CTAGTTCTTATCTCAGGTCCTGCCATTAAA | 0.632 |
| TAATACAAGAGGCTTCTTATCAGCAGCTGG | -1.04 |
| ATGGCAGGGGTTAACCTCTATTGACCTTCT | 4.36 |
| TCTCCTAAAGTGACTAGAGAGCAGGAGCCA | -1.14 |
| TTATTCCGTACAAGGATTCATTTCCACCCT | 1.59 |
| ACATTCCACGTTTGGGGAAGGATAAAATGA | -0.484 |
| AATGTCTTTCCTGCAGAGGGACTGACTCCC | 0.889 |
| GCAAACAAGGGCAACTCTAATAGCACAGAT | -1.06 |
| TCTGTGCTCATTATTATCAGCAAGAAAATC | 0.234 |
| TTGAACCTTTCTTTGTCTTTGCAATGTTGT | 2.41 |
| AGGCCAGCAGTGCTTTTCCCAGGAATAAAA | -1.13 |
| AGAACTTTGACCGTTTGATTATTTGTGAAG | 2.44 |
| CGGCGCCCGCCCACTGGAGACTTCAAACGG | 0.955 |
| GCGCCGGCCTCGGTCCTCGCTCGCCCGAGC | -1.06 |
| TTACCCCTTGAGTTTGAACTTTGACTTATT | 6.34 |
| GGGGCGCAGAAGGGATGGGAACCGACCTTT | 5.69 |
| TGTCCCCCATCTCATCCTGGGTGCCTTACA | 0.96 |
| TTAAAAGTTTCCCTTGATCAAAAACTGCCT | -1.07 |
| CTGCTTCCCTAGGGAGGTGATTGGTGAGTC | 0.108 |
